B1: PhoQ; a variant is named by its letters at X, in order, P23837 (parent)
chain: MKKLLRLFFPLSLRVRFLLATAAVVLVLSLAYGMVALIGYSVSFDKTTFRLLRGESNLFYTLAKWENNKLHVELPENIDKQSPTMTLIYDENGQLLWAQRDVPWLMKMIQPDWLKSNGFHEIEADVNDTSLLLSGDHSIQQQLQEVREDDDDAEMTHSVAVNVYPATSRMPKLTIVVVDTIPVELKSSYMVWSWFIYVLSANLLLVIPLLWVAAWWSLRPIEALAKEVRELEEHNRELLNPATTRELTSLVRNLNRLLKSERERYDKYRTTLTDLTHSLKTPLXXLQXXLRSLRSEKMSVSDAEPVMLEQISRISQQIGYYLHRASMRGGTLLSRELHPVAPLLDNLTSALNKVYQRKGVNISLDISPEISFVGEQNDFVEVMGNVLDNACKYCLEFVEISARQTDEHLYIVVEDDGPGIPLSKREVIFDRGQRVDTLRPGQGVGLAVAREITEQYEGKIVAGESMLGGARMEVIFGRQHSAPKDE

The list shows a part of the results.

The variants in the assay derive from B1. Briefly: enrichment ratio after two sorts for PhoP signalling (ratio (wild type AVST 3.29)); higher = more functional. The following applies: with PhoP (E. coli).
For KQQY, the enrichment ratio is at most 0.25. In the case of GEND, the enrichment ratio is at most 0.25.

As for LHCC, the enrichment ratio is at most 0.25. The figure for FLDH is at most 0.25; for VHFL it is at most 0.25; for SKRV it is at most 0.25. As for NVVN, the enrichment ratio was at most 0.25. Consider ATKK, for which the enrichment ratio is at most 0.25.

EIHI: the enrichment ratio was at most 0.25. The figure for DERQ is at most 0.25; for HNNV it is at most 0.25; for VEEL it is at most 0.25. With GKFE, the enrichment ratio was at most 0.25. The figure for MWSH is at most 0.25; for QNNF it is at most 0.25. As for DAGY, the figure is at most 0.25. The figure for RLIT is at most 0.25; for NGSL it is at most 0.25. With QFSC, the enrichment ratio was at most 0.25. As for LEEC, the enrichment ratio was at most 0.25. As for PLSV, the figure is at most 0.25. Turning to VKGA, the enrichment ratio was at most 0.25. Turning to MTPH, the enrichment ratio was at most 0.25. The figure for RTFW is at most 0.25; for SHST it is at most 0.25. The figure for IDNW is at most 0.25; for LMHL it is at most 0.25; for LPKK it is at most 0.25. For the variant GTGP, the enrichment ratio was at most 0.25.

Consider ICKK, for which the enrichment ratio is at most 0.25. The figure for VGLM is 6.74. As for LNET, the figure is at most 0.25.

SRPE: the enrichment ratio is 0.776. As for QRFR, the figure is at most 0.25; as for THIA, at most 0.25; as for SCES, at most 0.25.

On to HLHH, for which the enrichment ratio was at most 0.25. As for IDNE, the figure is at most 0.25; as for LWIE, at most 0.25. The figure for APHD is at most 0.25; for WADM it is at most 0.25. As for RNCL, the figure is at most 0.25; as for TNYD, at most 0.25. As for PVSY, the enrichment ratio is at most 0.25. For QIRL, the enrichment ratio is at most 0.25.

Consider DWDA, for which the enrichment ratio is at most 0.25. The figure for HASH is at most 0.25; for IVFA it is at most 0.25. FTQH: the enrichment ratio is at most 0.25. As for LYTG, the figure is at most 0.25; as for EYFW, at most 0.25; as for SFMY, at most 0.25. As for HMPQ, the figure is at most 0.25.

Turning to PNHD, the enrichment ratio is at most 0.25. As for RWGF, the figure is at most 0.25. As for DLES, the figure is at most 0.25; as for LLCD, at most 0.25; as for EKSH, at most 0.25.

On to EEHI, for which the enrichment ratio is at most 0.25. The figure for PEGY is at most 0.25; for DNSC it is at most 0.25; for TAQN it is at most 0.25.

On to APYN, for which the enrichment ratio was at most 0.25. The figure for GWMT is at most 0.25; for KKYA it is at most 0.25; for QQGY it is at most 0.25.

In the case of NIEG, the enrichment ratio is at most 0.25. The figure for IARD is at most 0.25; for PRII it is at most 0.25. The figure for WGLS is at most 0.25; for DDFL it is at most 0.25.

Turning to WKIM, the enrichment ratio is at most 0.25. For LYDY, the enrichment ratio is at most 0.25. For VLWS, the enrichment ratio was at most 0.25.

Consider SWRP, for which the enrichment ratio was at most 0.25. The figure for YMWT is at most 0.25; for TNWR it is at most 0.25.

As to VHMA, the enrichment ratio was at most 0.25. As for TFPP, the figure is at most 0.25; as for DPGC, at most 0.25. The figure for SQDG is at most 0.25; for ESYM it is at most 0.25.

Take LVVD: the enrichment ratio was at most 0.25. As for LLRA, the figure is at most 0.25.

For MTNP, the enrichment ratio is at most 0.25. As for FTAT, the figure is at most 0.25; as for NQQC, at most 0.25; as for RHSY, at most 0.25.

Take YRHF: the enrichment ratio was at most 0.25. The figure for LKLR is at most 0.25; for GWWT it is at most 0.25. For the variant LDCQ, the enrichment ratio was at most 0.25.

In the case of RMGI, the enrichment ratio was at most 0.25.

Regarding ICCI, the enrichment ratio is at most 0.25.

Turning to PSSY, the enrichment ratio is at most 0.25. Take FQLI: the enrichment ratio is 5.52. The figure for AMSP is at most 0.25. The figure for INRR is at most 0.25; for QIEK it is at most 0.25; for YKFV it is at most 0.25.

RVEF: the enrichment ratio was at most 0.25. WRKE: the enrichment ratio was at most 0.25. The figure for QLPW is at most 0.25; for YDHH it is at most 0.25. Consider TPWR, for which the enrichment ratio was at most 0.25. As for FWMV, the figure is at most 0.25; as for IVCY, 1.11; as for VFLT, at most 0.25. The figure for NQIE is at most 0.25. The figure for MVAA is at most 0.25; for TTGW it is at most 0.25.

With PGMS, the enrichment ratio is at most 0.25. As for KCWK, the figure is at most 0.25.

Consider MGDP, for which the enrichment ratio is at most 0.25. In the case of RHGE, the enrichment ratio was at most 0.25.

As for TFNA, the enrichment ratio was 2.84.

Take FPLQ: the enrichment ratio is at most 0.25.

As for LPWY, the enrichment ratio was at most 0.25. As for VTKS, the figure is at most 0.25; as for DTVH, at most 0.25. The figure for TFWS is at most 0.25; for IMYK it is at most 0.25; for VHSS it is at most 0.25. The figure for GHVD is at most 0.25. Regarding WKCI, the enrichment ratio was at most 0.25.

On to RGCM, for which the enrichment ratio was at most 0.25. As for PANH, the figure is at most 0.25; as for EQGT, at most 0.25; as for LIQH, at most 0.25.

On to KEPD, for which the enrichment ratio was at most 0.25. Take YDAY: the enrichment ratio is at most 0.25. The figure for ANHA is at most 0.25. The figure for NQRT is at most 0.25. The figure for GYMW is at most 0.25; for INIE it is at most 0.25.

For RQHN, the enrichment ratio was at most 0.25.

With DHLF, the enrichment ratio is at most 0.25. As for QHWS, the figure is at most 0.25; as for THGI, 1.93; as for ERAR, at most 0.25. The figure for GQII is at most 0.25; for NVAT it is at most 0.25. The figure for SPKR is at most 0.25; for NHLM it is at most 0.25. As for ENPC, the enrichment ratio was at most 0.25.

Take VFGT: the enrichment ratio is at most 0.25. As for MCCA, the figure is at most 0.25.

VMSQ: the enrichment ratio is at most 0.25. On to KTCK, for which the enrichment ratio was at most 0.25.

As to AKES, the enrichment ratio is at most 0.25. The figure for WVHK is at most 0.25; for KFQW it is at most 0.25.

In the case of DSSL, the enrichment ratio was at most 0.25. The figure for RSRG is at most 0.25; for WGKQ it is at most 0.25.

GCNK: the enrichment ratio was at most 0.25. As for KSKF, the figure is at most 0.25; as for MSCS, 0.763. As for EKAP, the figure is at most 0.25; as for NQLC, at most 0.25; as for TDPG, at most 0.25. Regarding HGTN, the enrichment ratio was at most 0.25. As for LHQR, the figure is 0.306. As for DWAN, the enrichment ratio was at most 0.25. The figure for MVTM is 3.98.

In the case of VAKV, the enrichment ratio was at most 0.25. As for VDAY, the figure is at most 0.25; as for SLLY, at most 0.25. As for PEQA, the figure is at most 0.25; as for WGQF, at most 0.25.

As for GMNF, the enrichment ratio was at most 0.25. The figure for YECA is 0.253; for IFQH it is at most 0.25; for QFWS it is at most 0.25.

Consider ASAG, for which the enrichment ratio stood at 7.21. As for DEPN, the figure is at most 0.25.

Take ANLQ: the enrichment ratio turned out to be 3.29. The figure for YGRC is at most 0.25; for MDFD it is at most 0.25.

As for ETIS, the enrichment ratio is at most 0.25.

Regarding NKQT, the enrichment ratio is at most 0.25. The figure for NWDM is at most 0.25; for SGWF it is at most 0.25. The figure for IFVM is at most 0.25; for QHEY it is at most 0.25; for FEHG it is at most 0.25. As for HGGW, the figure is at most 0.25; as for QMVN, at most 0.25; as for TQLD, 4. For the variant MSTG, the enrichment ratio was at most 0.25. As for THAQ, the figure is at most 0.25; as for NHQR, at most 0.25; as for TIVE, at most 0.25. As for ANFL, the figure is at most 0.25; as for QLSV, 0.989.

The record behind these values is a collection of fitness landscapes (doi:10.1126/science.1257360).
